The other results are listed elsewhere or left out.
Assays:
Assay in all cases: glycan array binding signal (z-score within array); higher = stronger binding
Settings in all cases: glycan notation: IUPAC condensed, linker removed
Fuc(a1-2)Gal = molecular target: Fuc(a1-2)Gal
Method in brief: (§1)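 The Consortium for Functional Glycomics database supplied 3228 glycan arrays, of which those lacking an available protein sequence were dropped. The binding signal, a within-array Z-score, was averaged across arrays of the same protein sequence and across linkers. Negative scores can be read as non-binding.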

Fuc(a1-2)Gal(b1-3)GalNAc = molecular target: Fuc(a1-2)Gal(b1-3)GalNAc
Method in brief: as §1

[1] = molecular target: Fuc(a1-2)Gal(b1-3)GalNAc(b1-3)Gal
Method in brief: as §1

[2] = molecular target: Fuc(a1-2)Gal(b1-3)GalNAc(b1-3)Gal(a1-4)Gal(b1-4)Glc
Method in brief: as §1

[3] = molecular target: Fuc(a1-2)Gal(b1-3)GalNAc(b1-3)Gal(b1-4)Glc
Method in brief: as §1

[4] = molecular target: Fuc(a1-2)Gal(b1-3)GalNAc(b1-4)[Neu5Ac(a2-3)]Gal(b1-4)Glc
Method in brief: as §1

[5] = molecular target: Fuc(a1-2)Gal(b1-3)[Fuc(a1-4)]GlcNAc
Method in brief: as §1

Fuc(a1-2)Gal(b1-4)Glc = molecular target: Fuc(a1-2)Gal(b1-4)Glc
Method in brief: as §1

Fuc(a1-2)Gal(b1-4)GlcNAc = molecular target: Fuc(a1-2)Gal(b1-4)GlcNAc
Method in brief: as §1

[6] = molecular target: Fuc(a1-2)Gal(b1-4)GlcNAc(b1-3)Gal(b1-4)GlcNAc
Method in brief: as §1

[7] = molecular target: Fuc(a1-2)Gal(b1-4)GlcNAc(b1-3)Gal(b1-4)GlcNAc(b1-3)Gal(b1-4)GlcNAc
Method in brief: as §1

[8] = molecular target: Fuc(a1-2)Gal(b1-4)[Fuc(a1-3)]GalNAc(b1-3)Gal(b1-4)[Fuc(a1-3)]GlcNAc
Method in brief: as §1

[9] = molecular target: Fuc(a1-2)Gal(b1-4)[Fuc(a1-3)]GalNAc(b1-3)Gal(b1-4)[Fuc(a1-3)]GlcNAc(b1-3)Gal(b1-4)[Fuc(a1-3)]GalNAc
Method in brief: as §1

[10] = molecular target: Fuc(a1-2)Gal(b1-4)[Fuc(a1-3)]GlcNAc
Method in brief: as §1

Fuc(a1-2)GlcNAc = molecular target: Fuc(a1-2)GlcNAc
Method in brief: as §1

Fuc(a1-2)[Gal(a1-3)]Gal = molecular target: Fuc(a1-2)[Gal(a1-3)]Gal
Method in brief: as §1

[11] = molecular target: Fuc(a1-2)[Gal(a1-3)]Gal(b1-3)GlcNAc
Method in brief: as §1

[12] = molecular target: Fuc(a1-2)[Gal(a1-3)]Gal(b1-4)Glc
Method in brief: as §1

[13] = molecular target: Fuc(a1-2)[Gal(a1-3)]Gal(b1-4)GlcNAc
Method in brief: as §1

[14] = molecular target: Fuc(a1-2)[Gal(a1-3)]Gal(b1-4)[Fuc(a1-3)]GlcNAc
Method in brief: as §1

[15] = molecular target: Fuc(a1-2)[Gal(a1-4)]Gal(b1-4)GalNAc
Method in brief: as §1

[16] = molecular target: Fuc(a1-2)[GalNAc(a1-3)]Gal
Method in brief: as §1

[17] = molecular target: Fuc(a1-2)[GalNAc(a1-3)]Gal(b1-3)GlcNAc
Method in brief: as §1

[18] = molecular target: Fuc(a1-2)[GalNAc(a1-3)]Gal(b1-4)Glc
Method in brief: as §1

[19] = molecular target: Fuc(a1-2)[GalNAc(a1-3)]Gal(b1-4)GlcNAc
Method in brief: as §1

[20] = molecular target: Fuc(a1-2)[GalNAc(a1-3)]Gal(b1-4)[Fuc(a1-3)]GlcNAc
Method in brief: as §1

[21] = molecular target: Fuc(a1-2)[GalNAc(a1-4)]Gal(b1-4)GlcNAc
Method in brief: as §1

Fuc(a1-3)GlcNAc = molecular target: Fuc(a1-3)GlcNAc
Method in brief: as §1

[22] = molecular target: Fuc(a1-3)[Gal(b1-4)]GlcNAc
Method in brief: as §1

[23] = molecular target: Fuc(a1-3)[Gal(b1-4)]GlcNAc(b1-4)Gal(b1-4)[Fuc(a1-3)]GlcNAc
Method in brief: as §1

[24] = molecular target: Fuc(a1-3)[Gal(b1-4)]GlcNAc(b1-4)Gal(b1-4)[Fuc(a1-3)]GlcNAc(b1-4)Gal(b1-4)[Fuc(a1-3)]GlcNAc
Method in brief: as §1

[25] = molecular target: Fuc(a1-3)[Gal3S(b1-4)]GlcNAc
Method in brief: as §1

[26] = molecular target: Fuc(a1-3)[GalNAc(b1-4)]Gal(b1-4)GlcNAc
Method in brief: as §1

Fuc(a1-4)GlcNAc = molecular target: Fuc(a1-4)GlcNAc
Method in brief: as §1

Fuc(b1-3)GlcNAc = molecular target: Fuc(b1-3)GlcNAc
Method in brief: as §1

Gal(a1-2)Gal = molecular target: Gal(a1-2)Gal
Method in brief: as §1

Gal(a1-3)Gal = molecular target: Gal(a1-3)Gal
Method in brief: as §1

Gal(a1-3)Gal(b1-3)Glc = molecular target: Gal(a1-3)Gal(b1-3)Glc
Method in brief: as §1

Gal(a1-3)Gal(b1-3)GlcNAc = molecular target: Gal(a1-3)Gal(b1-3)GlcNAc
Method in brief: as §1

Gal(a1-3)Gal(b1-4)GlcNAc = molecular target: Gal(a1-3)Gal(b1-4)GlcNAc
Method in brief: as §1

[27] = molecular target: Gal(a1-3)Gal(b1-4)[Fuc(a1-3)]GalNAc
Method in brief: as §1

Gal(a1-3)GlcNAc = molecular target: Gal(a1-3)GlcNAc
Method in brief: as §1

[28] = molecular target: Gal(a1-3)[Gal(a1-4)]Gal(b1-4)GlcNAc
Method in brief: as §1

Gal(a1-4)Gal(b1-4)Gal = molecular target: Gal(a1-4)Gal(b1-4)Gal
Method in brief: as §1

Gal(a1-4)Gal(b1-4)GalNAc = molecular target: Gal(a1-4)Gal(b1-4)GalNAc
Method in brief: as §1

B1: Tulipa lectin C-1 (Tulipa hybrid) (protein)
chain: MGMALVVALAVALASTVAGQQNVLLSGNTLANEESLSYGSVKFIMQNDCNLVLYGGGFQSNTASNGKKCTLTLNNNGHLIINDGLTGRVVWRNSNAQNPVGRYAAVLRPAPGTADVAIYGPAIWSTNDEFSYQESGVVPHKLGRETPNLPRMQNLLFSGQTLYGTDGMLSSNDGSTTFELSKCQLSLSLGNEVKWKVAPTVENGKENYCHVRLDHRGHLSLLNDDNVVLFRSIPTNGVEPPIGDYVLIVEKGAGYIYGPPIWNTYDNRRYKVASA
Fuc(a1-2)Gal
  glycan array binding signal (z-score): -0.214
Fuc(a1-2)Gal(b1-3)GalNAc
  glycan array binding signal (z-score): -0.198
[1]
  glycan array binding signal (z-score): -0.126
[2]
  glycan array binding signal (z-score): -0.225
[3]
  glycan array binding signal (z-score): -0.176
[4]
  glycan array binding signal (z-score): -0.217
[5]
  glycan array binding signal (z-score): -0.218
Fuc(a1-2)Gal(b1-4)Glc
  glycan array binding signal (z-score): -0.195
Fuc(a1-2)Gal(b1-4)GlcNAc
  glycan array binding signal (z-score): -0.193
[6]
  glycan array binding signal (z-score): -0.2
[7]
  glycan array binding signal (z-score): -0.218
[8]
  glycan array binding signal (z-score): -0.219
[9]
  glycan array binding signal (z-score): -0.206
[10]
  glycan array binding signal (z-score): -0.028
Fuc(a1-2)GlcNAc
  glycan array binding signal (z-score): -0.229
Fuc(a1-2)[Gal(a1-3)]Gal
  glycan array binding signal (z-score): -0.235
[11]
  glycan array binding signal (z-score): -0.231
[12]
  glycan array binding signal (z-score): -0.209
[13]
  glycan array binding signal (z-score): -0.174
[14]
  glycan array binding signal (z-score): -0.223
[15]
  glycan array binding signal (z-score): -0.225
[16]
  glycan array binding signal (z-score): -0.219
[17]
  glycan array binding signal (z-score): -0.216
[18]
  glycan array binding signal (z-score): -0.214
[19]
  glycan array binding signal (z-score): -0.16
[20]
  glycan array binding signal (z-score): -0.221
[21]
  glycan array binding signal (z-score): -0.208
Fuc(a1-3)GlcNAc
  glycan array binding signal (z-score): -0.182
[22]
  glycan array binding signal (z-score): -0.217
[23]
  glycan array binding signal (z-score): -0.221
[24]
  glycan array binding signal (z-score): -0.188
[25]
  glycan array binding signal (z-score): -0.151
[26]
  glycan array binding signal (z-score): -0.217
Fuc(a1-4)GlcNAc
  glycan array binding signal (z-score): -0.228
Fuc(b1-3)GlcNAc
  glycan array binding signal (z-score): -0.171
Gal(a1-2)Gal
  glycan array binding signal (z-score): -0.202
Gal(a1-3)Gal
  glycan array binding signal (z-score): -0.198
Gal(a1-3)Gal(b1-3)Glc
  glycan array binding signal (z-score): -0.154
Gal(a1-3)Gal(b1-3)GlcNAc
  glycan array binding signal (z-score): -0.193
Gal(a1-3)Gal(b1-4)GlcNAc
  glycan array binding signal (z-score): -0.223
[27]
  glycan array binding signal (z-score): -0.18
Gal(a1-3)GlcNAc
  glycan array binding signal (z-score): -0.21
[28]
  glycan array binding signal (z-score): -0.221
Gal(a1-4)Gal(b1-4)Gal
  glycan array binding signal (z-score): -0.099
Gal(a1-4)Gal(b1-4)GalNAc
  glycan array binding signal (z-score): -0.213
